Measurements taken from PubChem BioAssay AID1159614 (National Center for Advancing Translational Sciences (NCATS), 2016).
Among all 45,000 compounds or so, about 65 (0.1%) were called active. Calls come from the whole dose curve; as a rule, active = well fitted activation curve with a large enough effect; inconclusive = small, poorly fitted or top-dose-only effect; inactive = no such curve, though single readings can be large or run the other way. Some of the results follow.

target: Galactocerebrosidase (Homo sapiens) (UniProt P54803); test: A Novel Cell-Based Assay to Identify Small Molecules for B -Galactocerebrosidase; details: 145M-Twi-hGALC-G270D cells (Twitcher mouse brain line with human GALC G270D), HMU-beta-Gal fluorescence, 48 h; series mostly up to 57.5 µM; activation: at the top concentration; note: nearly all actives have a fitted effect of over 65% in size; for activation: 0% is about no effect
Sequence of UniProt P54803 (P54803 whole entry, looked up): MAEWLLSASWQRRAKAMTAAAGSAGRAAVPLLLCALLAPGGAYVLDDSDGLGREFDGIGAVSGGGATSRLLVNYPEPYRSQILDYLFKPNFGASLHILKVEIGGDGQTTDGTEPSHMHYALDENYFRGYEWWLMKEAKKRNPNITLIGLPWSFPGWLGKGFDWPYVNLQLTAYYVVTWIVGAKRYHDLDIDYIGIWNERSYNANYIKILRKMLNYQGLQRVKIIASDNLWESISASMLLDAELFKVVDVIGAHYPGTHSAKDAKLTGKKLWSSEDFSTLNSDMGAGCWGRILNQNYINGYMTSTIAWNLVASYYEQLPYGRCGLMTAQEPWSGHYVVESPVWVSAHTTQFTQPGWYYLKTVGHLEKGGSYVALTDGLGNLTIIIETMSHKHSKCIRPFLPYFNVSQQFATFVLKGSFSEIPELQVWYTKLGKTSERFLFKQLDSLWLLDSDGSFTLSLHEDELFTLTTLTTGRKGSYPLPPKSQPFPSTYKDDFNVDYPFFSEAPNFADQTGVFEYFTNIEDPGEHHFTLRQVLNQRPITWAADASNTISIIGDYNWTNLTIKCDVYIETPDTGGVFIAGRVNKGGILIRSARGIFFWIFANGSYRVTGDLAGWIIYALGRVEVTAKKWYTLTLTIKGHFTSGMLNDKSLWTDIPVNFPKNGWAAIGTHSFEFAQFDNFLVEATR
How it was run: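 Mutant human GALC (G270D), stably expressed in a Twitcher mouse brain cell line lacking endogenous GALC, is measured in live-treated cells via 6-hexadecanoylamino-4-methylumbelliferyl-β-galactoside hydrolysis (0.1 mM final, pH 5.2) with fluorescent detection.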
Potency is the fitted concentration of half-maximal effect.

Structure (SMILES) | activation | Potency
CC(CNC(=O)c1cnn(-c2ccc(F)cc2)c1-n1cccc1)c1ccccc1 (centres undefined) | inactive: -26.8% | –
Cc1ccc2nc(SCc3nc(-c4ccc(Cl)cc4)no3)[nH]c2c1 | inactive: -15.7% | –
CC(=O)Nc1ccccc1-c1nc2ccccc2n(CC(=O)Nc2cccc(C)c2C)c1=O | inactive: 1.04% | –
O=C(CSc1nc(=O)n(CCN2CCOCC2)c2c1CCC2)Nc1ccc(Cl)c(Cl)c1 | inactive: -12.8% | –
O=C(Nc1ccc(F)c(Cl)c1)Nc1c[nH]c(=O)[nH]c1=O | inactive: -10.4% | –
COc1ccc(C2CC(=O)N(Cc3ccc(C)cc3)c3c2c(C)nn3-c2nc(C)cc(C)n2)c(OC)c1 (centres undefined) | inactive: -14.1% | –
Cc1cccc2nc(-c3ccccn3)c(Nc3ccc(F)cc3)n12 | inactive: -11.6% | –
Cc1cc2c(cc1S(=O)(=O)Nc1cccc(Cl)c1C)n(C)c(=O)c(=O)n2C | inactive: -4.78% | –
Cc1cc(C)cc(N2C(=O)CSC23C(=O)N(Cc2c(F)cccc2Cl)c2ccccc23)c1 (centres undefined) | inactive: -14.9% | –
CCOC(=O)c1cc(-c2ccccc2)n(CCC(=O)Nc2ccccc2CC)c1C | inactive: -22.5% | –
COc1ccc(N2CCN(S(=O)(=O)c3ccc(-c4coc(C)n4)cc3)CC2)cc1 | inactive: -16.5% | –
CC(=O)N1c2ccc(S(=O)(=O)Nc3ccc(C)c(Cl)c3)cc2CC1C (centres undefined) | inactive: 7.14% | –
CCOc1ccc(CC(=O)Nc2c(C(=O)c3ccccc3)oc3ccc(Cl)cc23)cc1OCC | inactive: -14.1% | –
CCCCC(CC)CNC(=O)Cc1ccc(-n2c(=O)[nH]c3ccccc3c2=O)cc1 (centres undefined) | inactive: -7.87% | –
CCCCC12CN3CC(C)(CN(C1)C3c1c[nH]c3ccccc13)C2=O (centres undefined) | inactive: -8.98% | –
Cc1cccc(CSc2nc3c([nH]c4ccccc43)c(=O)n2C)c1 | inactive: 10.6% | –
CNS(=O)(=O)c1cn(CC(=O)N2CCN(c3ccc(C(C)=O)cc3)CC2)cc1S(=O)(=O)NC | inactive: -4.64% | –
Cc1ccc(NC(=O)C(CC(C)C)N2Cc3ccccc3C2=O)cc1F (centres undefined) | inactive: -13% | –
CC1=C(C(=O)Nc2cccnc2)C(c2ccc(C)cc2)n2nc(SCc3ccccc3F)nc2N1 (centres undefined) | inactive: -12.8% | –
Cc1c(CCNC(=O)c2ccc(C(C)(C)C)cc2)sc2nc(-c3ccc(F)cc3)nn12 | inactive: -13.1% | –
COc1cc2c(cc1OC)n(CC(=O)c1cc(C)ccc1C)c(=O)n1nc(CCn3nc(C)cc3C)nc21 | inactive: -2.97% | –
CCc1cc2c(cc3c(=O)n(CCCC(=O)NCc4cccc(Br)c4)ncn32)s1 | inactive: -11.9% | –
Cc1cc(Nc2ccc(F)cc2F)nc(-n2nc(C)cc2C)n1 | inactive: -41% | –
CCc1ccccc1S(=O)(=O)Cc1ccc(C(=O)NCCc2ccc(Cl)cc2)o1 | inactive: -5.22% | –

Structure (SMILES) | activation | Potency
O=C(Nc1cc(-c2cccc(Cl)c2)nn1-c1ccccc1)c1ccccc1F | inactive: -18.2% | –
CCS(=O)(=O)c1ncc(N(Cc2ccccc2)Cc2ccco2)c(C(=O)Nc2ccccc2C)n1 | inactive: -13.9% | –
CSCCC(NS(=O)(=O)c1ccc2c(c1)oc(=O)n2C)C(=O)NCc1ccc(Cl)cc1 (centres undefined) | inactive: -20.3% | –
Cc1ccc(C(=O)Nc2cc(-c3cn4cccnc4n3)ccc2C)cc1C | inactive: -3.71% | –
Cc1nnc(NC(=O)CSc2nccn2Cc2ccccc2)s1 | inactive: -13.8% | –
Cc1ccc(C)c(NC(=O)c2nc(S(=O)(=O)Cc3ccc(F)cc3)ncc2Cl)c1 | inactive: -21.3% | –
Cc1cc(F)ccc1Nc1nc2ccc(Cl)cc2n2cnnc12 | inactive: -0.582% | –
CCC(C)(C)NC(=O)C(NS(=O)(=O)c1cccs1)c1ccccc1 (centres undefined) | inactive: -18% | –
CCOC(=O)c1ccc(-n2c(CCC(=O)O)ccc2-c2ccccc2)cc1O | inactive: -0.177% | –
NCC[C@H](O)C(=O)N[C@@H]1C[C@H](N)[C@@H](O[C@H]2O[C@H](CN)[C@@H](O)[C@H](O)[C@@H]2O)[C@H](O)[C@@H]1O[C@H]1O[C@H](CO)[C@@H](O)[C@H](N)[C@@H]1O | inactive: -7.07% [at 0.46 µM] | –
CC(C)CCNc1nc(Nc2ccccc2)c2cnn(C)c2n1 | inactive: -27.7% | –
O=C(Cc1ccc(Cl)cc1)NCCc1csc2nc(-c3ccccc3F)nn12 | inactive: -9.94% | –
Cc1cc(=O)oc2cc(O)ccc12 | – | active: 28.2 µM
CC(CC(=O)Nc1ccc(F)cc1)S(=O)(=O)c1cc2c3c(c1)CCN3C(=O)CC2 (centres undefined) | inactive: -16.6% | –
COc1ccc(N2CCN(C(=O)C(CC(C)C)NS(=O)(=O)c3ccc4nc(C)sc4c3)CC2)cc1 (centres undefined) | inactive: -15.9% | –
CNc1ccc(-c2nc(-c3ccncc3)no2)cc1[N+](=O)[O-] | inactive: 3.47% | –
COC(=O)c1ccccc1NC(=O)CSc1nc2ccccc2nc1Cc1ccc(F)cc1 | inactive: -11.7% | –
Cc1ccc(CNc2cc(C)nc3nc(-c4ccc(C)cc4)nn23)cc1 | inactive: -22.8% | –
O=C(NC1CCCCC1)c1ccc2c(c1)N(Cc1cccc(Cl)c1)C(=O)c1ccccc1S2(=O)=O | inactive: -14.7% | –
COc1ccc(CNC(=O)CCc2c(C)nc3cc(-c4ccc(OC)cc4OC)nn3c2C)cc1 | inactive: -15.6% | –
CCOc1ccc2nc(N3CCCC(C(=O)Nc4ccccc4CC)C3)sc2c1 (centres undefined) | inactive: -0.619% | –
CCc1ccc(NC(=O)CSc2nc(-c3ccc(C)cc3)nc3c2Cc2c(CO)cnc(C)c2O3)cc1 | inactive: -21.3% | –
CCOC(=O)c1cc(-c2ccc(F)cc2)n(CCC(=O)NC2CCC(C)CC2)c1C (centres undefined) | inactive: -8.11% | –
Cc1oc(=O)oc1COC(=O)[C@@H]1N2C(=O)[C@@H](NC(=O)[C@H](N)c3ccccc3)[C@H]2SC1(C)C | inactive: -13.8% | –

Structure (SMILES) | activation | Potency
Cc1cccc(NC(=O)Cn2c(=O)n(CC3CCC(C(=O)NCCc4ccccc4)CC3)c(=O)c3ccccc32)c1 (centres undefined) | inactive: -10.7% | –
CC(C)=CCNc1ncnc2c1ncn2[C@@H]1O[C@H](CO)[C@@H](O)[C@H]1O | inactive: -12.8% | –
Fc1ccc(Nc2nc(-c3cccc(Cl)c3)c3c(n2)-c2ccccc2OC3)c(F)c1 | inactive: -8.44% | –
Fc1ccc(-c2cc(-c3ccc(F)cc3)c3c(n2)-c2cc(F)ccc2OC3)cc1 | inactive: 4.49% | –
Cc1c(NC(=O)c2cccs2)cccc1-c1nc2cc(Cl)ccc2o1 | inactive: -9.1% | –
CCOc1ccc(NC(=O)c2nc(S(=O)(=O)Cc3ccccc3F)ncc2Cl)cc1 | inactive: -19.3% | –
COc1ccc(S(=O)(=O)n2nc(-c3ccco3)nc2NCc2ccc(C(C)C)cc2)cc1 | inactive: -8.84% | –
O=C(O)Cc1ccc2c(c1)C(=O)c1ccccc1CO2 | inactive: -8.94% | –
CCc1ccc(-c2nc3cc(NC(=O)c4ccc(C)c(C)c4)ccc3o2)cc1 | inactive: -24.6% | –
COc1ccc(-c2cc(-c3nc(-c4cc(OC)c(OC)c(OC)c4)no3)[nH]n2)c(OC)c1 | inactive: -20.5% | –
CC(=O)NCCNC(=O)CCCc1nnc2n(CC(C)C)c(=O)c3sccc3n12 | inactive: -3.31% | –
Cc1nc2ccccc2n1Cc1ccc(Cl)cc1 | inactive: -17.4% | –
COc1ccc(S(=O)(=O)NCc2cccn2Cc2cc(C)ccc2C)cc1OC | inactive: -9.58% | –
CCc1nnc2c3ccccc3nc(Nc3cc(C)cc(C)c3)n12 | inactive: -22.5% | –
COc1cccc(NC(=O)Cn2c(=O)n(Cc3ccc(F)cc3)c(=O)c3sc4ccccc4c32)c1 | inactive: -14.2% | –
O=C(NCCCN1CCN(c2ccccc2F)CC1)c1ccc2nc(CCc3ccccc3)oc2c1 | inactive: -12.3% | –
CCOc1ccc(C(=O)Nc2ccc(OCc3cc(=O)n4cccc(C)c4n3)cc2)cc1 | inactive: -9.09% | –
CCOC(=O)c1cccc(NC(=O)Nc2c(C)n(C)n(-c3ccccc3)c2=O)c1 | inactive: -12.8% | –
O=c1[nH]c(C2CCCN(S(=O)(=O)c3ccccc3)C2)nc2c1nnn2Cc1ccccc1Br (centres undefined) | inactive: 0.694% | –
COc1ccc(-c2ccc(=O)n(CC(=O)Nc3cc(OC)ccc3OC)n2)cc1 | inactive: -3.71% | –
Cc1cccc(-n2ncc3c(NNC(=O)c4ccccc4Cl)ncnc32)c1 | inactive: -14.2% | –
Cc1ccc(C)c(Nc2nn3c(=O)c4ccc(C(=O)NCc5ccccc5)cc4nc3s2)c1 | inactive: -20.6% | –
COc1ccc(CNC(=O)c2cc(-c3ccc(Br)s3)nc3ccccc23)cc1 | inactive: -14.5% | –
CCOC(=O)c1ccc(NC(=O)CC(C)n2nc(C)cc2C)cc1 (centres undefined) | inactive: -13.6% | –

Structure (SMILES) | activation | Potency
O=C(CN1C(=O)COc2ccc(S(=O)(=O)N3CCCCCC3)cc21)N1CCN(c2ccc(Cl)cc2)CC1 | inactive: 0.125% | –
COc1cc(NC(=O)Cc2noc3ccccc23)cc(OC)c1OC | inactive: -18.8% | –
CCc1cnc2c(c1SCc1cc(OC)cc(OC)c1)c(=O)n(C)c(=O)n2C | inactive: -13.7% | –
COc1ccc(OC)c(S(=O)(=O)NCCS(=O)(=O)N2CCN(c3ccccc3F)CC2)c1 | inactive: -31.8% | –
CCS(=O)(=O)NCCc1csc2nc(-c3ccc(OC)cc3)nn12 | inactive: -10.9% | –
Cc1ccc(C)c(CN2C(=O)c3ccccc3S(=O)c3ccc(C(=O)N4CCCCC4)cc32)c1 (centres undefined) | inactive: -13.5% | –
COc1cccc(C(=O)Nc2nnc(S(=O)(=O)N3CCCc4ccccc43)s2)c1 | inactive: -10.3% | –
Cc1nn(CCC(=O)Nc2cccc(C#N)c2)c(C)c1S(=O)(=O)N1CCCCC1 | inactive: 9.62% | –
Cc1cccc(C)c1NC(=O)Cn1cc(C(=O)C2CC2)c2ccccc21 | inactive: -13.6% | –
CCCCN(CC)CCCNC(=O)c1cn(C)c(=O)c2c1c1ccccc1n2C | inactive: -4.97% | –
C=CCc1ccccc1OCCSc1nc(-c2ccccc2F)nc2cc(=O)[nH]n12 | inactive: -10.2% | –
O=S(=O)(NCC(c1ccccc1)N1CCc2ccccc21)c1ccc(Cl)cc1 (centres undefined) | inactive: -35.6% | –
Cc1ccc(C(=O)C(=O)O)cc1C | inactive: -13.3% | –
COc1ccccc1/C=C/C(=O)Nc1nc2n(n1)C(c1ccc(F)cc1)C=C(c1ccccc1)N2 (centres undefined) | inactive: -9.28% | –
Cc1ccc(OCCn2c(C3CC(=O)N(Cc4ccc(F)cc4)C3)nc3ccccc32)c(C)c1 (centres undefined) | inactive: -22.2% | –
CSc1ncc(C(=O)NCc2cccc(C)c2)c(-c2ccccc2)n1 | inactive: -16.8% | –
Cc1cccc(NC(=O)c2c(NC(=O)c3ccccc3)sc3c2CCC3)c1 | inactive: -13.2% | –
Cc1cc(C)cc(-n2ccnc2SCC(=O)Nc2ccccc2F)c1 | inactive: -32.3% | –
COc1ccc(C(=O)c2cn(Cc3ccccc3OC)c3cc4c(cc3c2=O)OCO4)cc1 | inactive: -8.7% | –
COC(=O)c1ccc(NC(=O)CC2C(=O)N(c3ccccc3)C(=O)N2Cc2cccs2)cc1 (centres undefined) | inactive: -14.6% | –
CCN(CC)C(=O)c1sc2c(c1C)c(=O)n(-c1ccc(OC)cc1OC)c(=O)n2CC(=O)Nc1ccccc1 | inactive: 2.45% | –
Cc1cccc(N2CCN(c3nc4ccccc4c4nnc(C)n34)CC2)c1C | inactive: -18.3% | –
